Measurements taken from article PMC12136788.
Some of the results follow.

T1: UNK ZnF1-3 (human, UniProt Q9C0B0 31-174)
T1 sequence: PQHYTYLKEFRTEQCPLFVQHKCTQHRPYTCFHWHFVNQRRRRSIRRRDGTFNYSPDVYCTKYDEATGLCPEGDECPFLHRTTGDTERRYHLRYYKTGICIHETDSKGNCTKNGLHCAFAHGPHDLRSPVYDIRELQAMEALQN

B1: chr2:210598762:210598763:+_ENSG00000078018_ENST00000392194|hu_hu|motif|central (ssRNA)
RNA: GGGAGUUCUACAGUCCGACGAUCCAAAACAAUCACUAUACAGCAACAAAUACAUUUGCAAAUUUGAUUGAAAAACAUGAACGGACGGCAACCAGCCAUUGAAGAAAUGCCUUUCUAUGGUAACAGGCUCUAGAAUUAUCAGAACAACAGAGGAUUGAGCAUCA
B2: chr7:65705475:65705476:+_ENSG00000169902_ENST00000304842|hu_mus|motif|central (ssRNA)
RNA: GGGAGUUCUACAGUCCGACGAUCUCUAUUCGGUGAUGGCACUCCAUGGCAUGCUGGCCCAGGUAAAACACGGUCACAGAACGGAUCACCAGACACGCCAAGAGUAAGUUCUGCUUCAGCUUCCCAACCAUCUUGAUGUGGUUACAACAGAGGAUUGAGCAUCA
B3: chr19:16212804:16212805:+_ENSG00000167460_ENST00000300933|hu_mus|hu_hu_hu_mus_False|38_58 (ssRNA)
RNA: GGGAGUUCUACAGUCCGACGAUCAACAAUUCUGGAGUGAAGGAAAGAUGUAACAUGGAACAGCAUUAAAGCUCAGUAUUACUAUAUAUGGGCAACAAUGACUAUUUCAGCAUUCUCGCUUGGAAUGCUUAAAGACAAUCUGUUCAACAGAGGAUUGAGCAUCA
B4: chr11:4127340:4127341:+_ENSG00000167325_ENST00000300738|hu_mus|hu_hu_hu_mus_False|78_78 (ssRNA)
RNA: GGGAGUUCUACAGUCCGACGAUCGGCAUAGUCAGGGUGCUUCGUGGUCAAGGUCGCAGCUGUUUCAGCAGCCAGGGUGUCCAGUUCCACUGUGGUGACCCCACUAUAUAGGCCUUGGAUUACUUUCAUGGUGAUCUGAGCAGGCAACAGAGGAUUGAGCAUCA
B5: chr7:97836282:97836283:+_ENSG00000164715_ENST00000297293|hu_mus|FALSE|FALSE (ssRNA)
RNA: GGGAGUUCUACAGUCCGACGAUCAAAGCGAGGUCUCCCUCUGUGUUAGGGACAGCAGACUCCUCCGAUGAUGUACUGAAGCUACGCUGAAGAUGUGAAAUCCCUUUCAGAACAAGAGGAGAGCUGGGUGCUUGGUACAGGAAACAACAGAGGAUUGAGCAUCA
B6: chr4:40680873:40680874:+_ENSMUSG00000028410_ENSMUST00000030118|mus_hu|FALSE|FALSE (ssRNA)
RNA: GGGAGUUCUACAGUCCGACGAUCCUGAUACCCAGAUUUAAGCAUGUGAACAUAUGAGACUUUUAAACAUACAAUUAAAGCUAUUCAUCAUAAUUUGCUAUACUACCAACAUAACUUUGGAGCGAAAGUCAAAUGGUUUAAAGUCAACAGAGGAUUGAGCAUCA
B7: 38865426_38868500_1348_CDS_ENSG00000157540_ENST00000338785|human|control|control (ssRNA)
RNA: GGGAGUUCUACAGUCCGACGAUCCUUUCUUGCUUUUGGUGCUUGGUCAAGAAUAUGAGCAGGUGGAAUACCCAGAACUUCCACUAUUUUAUUCAUCUGAUCUACCUCAUUGGCACCACUGAACAGAGGUUCUCCAGUGUGCAUCAACAGAGGAUUGAGCAUCA
B8: chr14:31337589:31337590:+_ENSMUSG00000021962_ENSMUST00000022535|mus_hu|FALSE|FALSE (ssRNA)
RNA: GGGAGUUCUACAGUCCGACGAUCAAAUGACCUGUAUCAUAGAAACGAAGACACUUUCAUUCAAAGAAUAUCUUAAAAUUACUAUUGCUGAAAUAAAUCAAAAUCUACAUUAAAAUAUUACUAAACACCAUUACAUGCCAUAAACAACAGAGGAUUGAGCAUCA
B9: chr14:65392728:65392729:+_ENSG00000258289_ENST00000359118|hu_mus|FALSE|FALSE (ssRNA)
RNA: GGGAGUUCUACAGUCCGACGAUCAUACUCGUGUCUGGCUACUACAUGAUGACAGUUCUUACACAGAUGGUCAUAGGUAACUAUUUCUUCUCCAUCUUCCUCUUUCAGGGAUCUGUUUGUGAUCAGCAUAAAGUCCCGCUUACUCAACAGAGGAUUGAGCAUCA
B10: chr12:39763582:39763583:-_ENSG00000139116_ENST00000544797|hu_mus|hu_hu_hu_mus_False|18_88 (ssRNA)
RNA: GGGAGUUCUACAGUCCGACGAUCCUCUAGGAACUGGGCAUUCACUUUAAAAUCUGGAGGGGGCAGCCCGUUUUUAAUCGCUGAGGUCUUUUUCUCAUCAAUACUCUUGAACAGGUGUUUAACAGCUCGAGAGAUGAUGCCCUGCAACAGAGGAUUGAGCAUCA
B11: chr16:45382771:45382772:-_ENSMUSG00000022661_ENSMUST00000163230|mus_mus|mus_mus_mus_hu_True|8_58 (ssRNA)
RNA: GGGAGUUCUACAGUCCGACGAUCCUGGGUCAUGUUAUAAGACAAAUGGACAGGGAGGGCAUGCUUCUCAAAAAAUGUGAACUACUCUCUAAGACUAACAAUAUUUAUCUAGCUAUAAAAAUAAGUUUUAAAUGGACGUUAAGACAACAGAGGAUUGAGCAUCA
B12: chr11:16760304:16760305:+_ENSG00000110696_ENST00000422258|hu_hu|FALSE|FALSE (ssRNA)
RNA: GGGAGUUCUACAGUCCGACGAUCCACCCCAUGCGGGUGAGACUCUCUGGCAGCACUCAUCCUUGCGGGGAUCCCGACGAAAAAUGCCGAACCCUCUCGCCGCUCUUCCCAGCCGCAAAACCAGCAGCUUACAAUCCGCCAAGGCAACAGAGGAUUGAGCAUCA
B13: chr11:46405157:46405158:+_ENSG00000110492_ENST00000395566|hu_hu|hu_hu_hu_mus_False|18_18 (ssRNA)
RNA: GGGAGUUCUACAGUCCGACGAUCCCCUCCCCACUUUGGGCACUUGGUGUGGGCGUGAGAGGACAGGCGUGAUUGACAGAGCUGACAGGAAGACAAAAGGCACUGGUGGGUUAUAUCUCGGGCCUGGGGGAGAGGAGGGCUCCGCAACAGAGGAUUGAGCAUCA
B14: chr1:109605286:109605287:-_ENSG00000197780_ENST00000461096|hu_mus|hu_hu_hu_mus_True|68_68 (ssRNA)
RNA: GGGAGUUCUACAGUCCGACGAUCAAGUUUCAGAGUAACAUUCAGUAACCUCUUUAAAUGCAAUUAUCCUUACUUUAAGCUAAGCAGAAUAAUAAUUUAAUACCGUAAGUGAACUACACACAAAGCCUGAACCGCGAAAAUGGUCAACAGAGGAUUGAGCAUCA
B15: 33028138_33033104_1131_CDS_ENSG00000078747_ENST00000374864|human|control|control (ssRNA)
RNA: GGGAGUUCUACAGUCCGACGAUCCCGCCGUUCCCAGCCAGGAGGUAGAGGUUCUGGUCUAUCCCAUGUUGUUCUUUUCUCAACAUGAUCUACAUAGUAAACUCGCCCGUGCUGGUCCACUCUCUGCUCCCAACCAGGUGGCAACAACAGAGGAUUGAGCAUCA
B16: chr11:122931392:122931393:-_ENSG00000109971_ENST00000227378|hu_hu|motif|central (ssRNA)
RNA: GGGAGUUCUACAGUCCGACGAUCUGUCAGAACCAUAGAAGACACCUCCUCUGGAUAGAAGCUUUUGGUCUCUCCCUUGUAUUCGGCUUGGACCUUGGGCCUGCCAGCAUCAUUCACCACCAUAAAGGGCCAAUGUUUCAUAUCCAACAGAGGAUUGAGCAUCA
B17: chr2:202488911:202488912:-_ENSG00000155755_ENST00000286196|hu_mus|hu_hu_hu_mus_False|8_28 (ssRNA)
RNA: GGGAGUUCUACAGUCCGACGAUCAUUGAAACAUUUUUCAUAAUCUCCAGUAGCAUUUCAGCAUUAUGUAACAAAAGCUCAAUUGUAAAUACAUGUAUCUUAUAAAAAUAAAAAUACAAACACGAGUAAAAAUGGGAGGCGCCACAACAGAGGAUUGAGCAUCA
B18: chr17:27085315:27085316:-_ENSG00000173065_ENST00000581407|hu_hu|FALSE|FALSE (ssRNA)
RNA: GGGAGUUCUACAGUCCGACGAUCACCUAGGAGGGUGAUGUAUGAUGUGUUGCACGUGGAGGGCAGCAGGGCUACCUAUCUAUACCCUGGGUGCUGAAUAUGAAGACUUCGACUCUCUGUGGGAUCGGGGGCUCGGUUGCCAGGCAACAGAGGAUUGAGCAUCA
B19: chr19:33076771:33076772:+_ENSG00000105185_ENST00000590247|hu_mus|FALSE|FALSE (ssRNA)
RNA: GGGAGUUCUACAGUCCGACGAUCCGCCAUCUGUAUAAGGUAGUUCUCCACUGCUUUAGUUUUUUCAGGCUUUACAAGUGCUAAGUUACUUAAUCUGGCCCGGGCUGACUGAUCCAGAACUUGGGCUAAGAUACUGUUUCUCAUCAACAGAGGAUUGAGCAUCA
B20: chr17:66526506:66526507:+_ENSG00000108946_ENST00000358598|hu_hu|FALSE|FALSE (ssRNA)
RNA: GGGAGUUCUACAGUCCGACGAUCGUACUGCUGGAUGUUUCGUUUGAGGAUGUCUGAGCAUGGGCCAAGAACACGUUCAAAUCUAGGUCGGUCCAGCUUAACGCACUUCAAGGGGCCACGAGCAACAACUGUGGCAGCACGAGGCAACAGAGGAUUGAGCAUCA
B21: 60527691_60527811_2217_CDS_ENSG00000081913_ENST00000262719|human|control|control (ssRNA)
RNA: GGGAGUUCUACAGUCCGACGAUCGGCAGCUGGAAGGCUAGGGUUCUGCCUUAGGAAGUUUUGUUUUAAAUUGAGAUGAGUGAGGUCUUGGCUGUAGAAGAGGUUGGCAGGCAGAUGUUCCAGGCUACAACACGAGAGGUCCACCAACAGAGGAUUGAGCAUCA
B22: chr4:21667751:21667752:+_ENSMUSG00000028252_ENSMUST00000108240|mus_mus|FALSE|FALSE (ssRNA)
RNA: GGGAGUUCUACAGUCCGACGAUCUUCUAGUAUAUGAUUCAUCCUGUAAGGAAAUUCCUUUGGAAAAGCAUAUGAAAAUCUAGUUUUUAAUACAGAAGUAGUAGCAGCAAUCAAUCUUGUAUUUGAGACAACACCAAAUUCCUCCAACAGAGGAUUGAGCAUCA

What follows are binders tested against T1, UNK ZnF1-3 (assay: nsRBNS (natural sequence RNA bind-n-seq); RBNS binding buffer (assumed for nsRBNS): 25 mM Tris pH 7.5, 150 mM KCl, 3 mM MgCl2, 0.01% Triton X-100, 500 ug/ml BSA, 20 U/ml SUPERase-In, 4 C; UNK is unkempt and MSI1 is Musashi-1; names of the RNAs are library labels; protein concentration not given here; high values mean tight binding).
B1 showed a binding signal of 1.53 enrichment R.
With B2 the binding signal was 0.537 enrichment R.
For B3, the binding signal was 0.924 enrichment R.
For B4, the binding signal was 1.03 enrichment R.
Binder B5 has a binding signal of 1.46 enrichment R.
In the case of B6, the binding signal is reported as 1.08 enrichment R.
Work on B7 yielded a binding signal of 0.842 enrichment R.
B8 showed a binding signal of 1.15 enrichment R.
B9 showed a binding signal of 0.682 enrichment R.
B10 was tested, and the binding signal was 1.89 enrichment R.
B11 showed a binding signal of 2.47 enrichment R.
Binder B12 has a binding signal of 1.17 enrichment R.
In the case of B13, the binding signal is reported as 2.59 enrichment R.
B14 was tested, and the binding signal was 0.754 enrichment R.
B15 was tested, and the binding signal was 0.755 enrichment R.
B16 gave a binding signal of 1.19 enrichment R.
Binder B17 has a binding signal of 1.68 enrichment R.
B18 gave a binding signal of 1.03 enrichment R.
B19 gave a binding signal of 0.563 enrichment R.
B20 showed a binding signal of 1.88 enrichment R.
For B21, the binding signal was 2.89 enrichment R.
B22 gave a binding signal of 1.28 enrichment R.
